Source: PubChem BioAssay AID463173 (ICCB-Longwood Screening Facility, Harvard Medical School, 2010)
The campaign covered roughly 52,000 compounds. About 1,700 (3.3%) were called active. Rule as the data show it: active = survival mostly below about 52% (no sharp cut-off); inactive = mostly above about 56%. Some of the results follow.

system: Wild type; assay: growth inhibition of S. aureus wild type versus tarO mutant, primary screen, teichoic acid synthesis inhibitors, RN4220, OD600 (AID 463173); conditions: S. aureus RN4220 wild type/DeltatarO growth, OD600, 18 h, hits give low values, screened at 18.75 µg/mL (by protocol)

Compound	survival
CC(C)Oc1ccc(CNC(=O)C2CCN(C(=O)c3sccc3-n3cccc3)CC2)cc1	inactive: 72%
CC(C)OCCCN(Cc1ccco1)C(=O)c1cc2c(s1)-c1ccccc1OC2	active: 9%
CCN(CC)C(=O)Cn1cc(SCC(=O)Nc2cccc(C)c2)c2ccccc21	inactive: 77%
COCc1cc(C)n(CC(=O)Nc2ccc(NC(C)=O)cc2)c(=O)c1C#N	inactive: 85%
Cc1ccc2[nH]c(=O)c(CN(Cc3ccccc3)C(=O)N(C)C)cc2c1	inactive: 103%
Cc1ccc(S(=O)(=O)NCC2COc3ccccc3O2)cc1 (centres undefined)	inactive: 126%
CC1=C(C#N)C(NC(=O)c2cccc(Cl)c2)(C(F)(F)F)C(=O)N1 (centres undefined)	inactive: 78%
COC(=O)C1=C(C)NC(=O)CC1c1ccccc1 (centres undefined)	inactive: 95%
COc1ccccc1-c1noc(-c2ccc(N3CCN(c4ccccc4)CC3)c([N+](=O)[O-])c2)n1	inactive: 87%
COc1ccc(N2CCN(c3cc(C)nc4nc(-c5ccc(C)cc5)nn34)CC2)cc1	inactive: 75%
Cc1cccc(C(=O)N2CCc3cc(CNC(=O)CCc4ccccc4)ccc32)c1	inactive: 75%
Cc1ccc(Cl)cc1NC(=O)N1CCN(C)c2ncccc21	inactive: 73%
Cc1ccc(S(=O)(=O)c2cn(C)c3cc(N4CCN(C)CC4)c(F)cc3c2=O)cc1	inactive: 66%
CCCc1c(O)nc(SCC(=O)N(CC)CC)[nH]c1=O	inactive: 105%
CCOCCOC(=O)c1ccc(NC(=O)/C=C/c2ccc(OC)c(OC)c2)cc1	inactive: 137%
O=C(CSc1ncc2c(n1)-c1ccccc1N(Cc1ccc(F)cc1)S2(=O)=O)c1ccc(Cl)cc1	inactive: 72%
CCc1cc2c(cc3c(=O)n(CC(=O)N4CCN(c5cc(Cl)ccc5C)CC4)ncn32)s1	inactive: 75%
COc1ccccc1C(=O)Nc1cc2c(cc1N1CCCCC1)n(C)c(=O)n2C	inactive: 88%
COc1ccc(Nc2c(-c3cc(Br)ccc3O)nc3ncccn23)cc1OC	inactive: 67%
Cc1cccc(C)c1-n1ncc(C(=O)Nc2ccc3c(c2)OCCO3)c1C1CCN(C(=O)OC(C)(C)C)CC1	inactive: 70%
Cc1ccc(NCc2cccn2-c2nnc(N3CCC(C(=O)NCc4ccc(OC(C)C)cc4)CC3)s2)cc1	inactive: 73%
COc1ccccc1N1CCN(S(=O)(=O)c2c(C)sc3ncn(CC(=O)N(C)c4ccc(C(C)C)cc4)c(=O)c23)CC1	inactive: 77%
CCC1(C(=O)OC)NC(c2ccc(OC)cc2)C2C(=O)N(C)C(=O)C21 (centres undefined)	inactive: 111%
CNS(=O)(=O)c1ccc(OC)c(-c2nnc3c4ccccc4c(C)nn23)c1	inactive: 82%
COc1cccc(OC(=O)CSc2nnc(-c3ccccc3OC)o2)c1	inactive: 88%
O=C(CN1C(=O)CSC1=O)c1ccccc1	inactive: 111%
CCOc1ccc(NS(=O)(=O)c2ccc3[nH]cc(C(=O)NCc4ccco4)c(=O)c3c2)cc1	inactive: 80%

Compound	survival
O=c1cc(CN2CCN(S(=O)(=O)c3ccc(Cl)cc3)CC2)nc2sc(-c3ccccc3F)nn12	inactive: 126%
O=S(=O)(NCCc1ccccc1)c1ccc(N2CCCCS2(=O)=O)cc1	inactive: 64%
O=C(CSc1nc(-c2ccc(Cl)cc2)nc2c1Cc1ccccc1O2)N1CCCCC1	inactive: 82%
Cc1ccc(N2C(=O)CS(=O)(=O)C23C(=O)N(Cc2cccc(F)c2)c2ccccc23)cc1Cl (centres undefined)	inactive: 75%
COc1ccc(C(=O)O)cc1Nc1nc2ccc(C)cc2n2cnnc12	inactive: 117%
Cc1cccc(NC(=O)c2sc3nc4n(c(=O)c3c2C)N=C(c2ccc(F)cc2)CS4)c1C	inactive: 95%
Cc1ccc(C)c(N2CCN(c3nc4ccccc4c4nc(CCn5nc(C)cc5C)nn34)CC2)c1	inactive: 82%
COc1ccc(Cl)cc1NC(=O)c1cc2nc(-c3ccc4c(c3)OCO4)cc(C(F)(F)F)n2n1	inactive: 65%
COCCN(C(=O)C1CC1)c1nnc(-c2cc(OC)c(OC)c(OC)c2)s1	inactive: 97%
COC(=O)Cn1c(=O)c2c(nc3n2CCN3c2cccc(C)c2)n(C)c1=O	inactive: 90%
CCCCc1ccc(NC(=O)c2cc3c(=O)n4ccccc4nc3n2C)cc1	inactive: 95%
COc1ccc2nc3sc(C(=O)Nc4ccccc4F)cc3cc2c1	inactive: 90%
COc1ccc(NC(=O)CCCc2nc(-c3ccco3)no2)c(OC)c1	inactive: 113%
CCN(CC)S(=O)(=O)c1ccc(NC(=O)[C@H](CSCc2ccccc2)N2Cc3ccccc3C2=O)cc1	inactive: 130%
O=C(c1ccco1)N(Cc1cccnc1)c1nc2ccc(F)cc2s1	inactive: 115%
COc1ccc(NC(=O)c2ccccc2NC(=O)c2ccco2)cc1	inactive: 110%
Cc1cc(C)cc(NC(=O)C2CCCN(c3nnc(C)c4c(C)n(-c5ccccc5)nc34)C2)c1 (centres undefined)	inactive: 72%
CCOC(=O)Cn1c(=O)oc2cc(S(=O)(=O)N3CCN(c4ccc(Cl)cc4)CC3)ccc21	inactive: 72%
CCc1ccc(C2C(C(=O)Nc3ccccc3)=C(C)Nc3c(C(=O)Nc4ccc(C)cc4)cnn32)cc1 (centres undefined)	active: -1%
Cc1ccc(S(=O)(=O)NCC(c2ccc(N(C)C)cc2)N2CCCC2)cc1 (centres undefined)	inactive: 88%
COc1cc(OC)cc(-c2nc3n(n2)C(c2ccccc2F)C(C(=O)Nc2cccnc2)=C(C)N3)c1 (centres undefined)	inactive: 70%
CCc1ccc(S(=O)(=O)c2cn(C)c3cc(N4CCCCC4C)c(F)cc3c2=O)cc1 (centres undefined)	inactive: 125%
CCc1c(C)c2ccc3c(c2oc1=O)CN(Cc1ccccc1)CO3	inactive: 95%
COc1ccc(OCC(=O)Nc2nnc(S(=O)(=O)N3CCCCCC3)s2)cc1	inactive: 85%
CCOC(=O)C1CCN(C(c2ccccc2)c2c(O)cc(C)n(Cc3ccco3)c2=O)CC1 (centres undefined)	inactive: 60%
O=C(Nc1ccc(C(F)(F)F)cc1)C1CCC(CNS(=O)(=O)c2cccc3nsnc23)CC1 (centres undefined)	inactive: 74%
CCOc1ccc(NC(=O)Cn2c(Nc3ccc(OCC)cc3)nc3c2c(=O)[nH]c(=O)n3C)cc1	inactive: 112%
